Several values for one entry are separate records, joined by “and”; a condition that tells them apart may be missing. Equal values may be shown once. Among all 110,000 compounds or so, about 230 (0.21%) showed an effect of 50% or more. The list shows a part of the results.

The source of these data is paper PMC6919601, “Identification of Plasmodium dipeptidyl aminopeptidase allosteric inhibitors by high throughput screening” (PLoS ONE, 2019).
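Note: 30 min substrate incubation versus DMSO and 10 µM JCP410 controls.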

Sequence of DPAP1 (Q8IIJ9 whole entry, looked up): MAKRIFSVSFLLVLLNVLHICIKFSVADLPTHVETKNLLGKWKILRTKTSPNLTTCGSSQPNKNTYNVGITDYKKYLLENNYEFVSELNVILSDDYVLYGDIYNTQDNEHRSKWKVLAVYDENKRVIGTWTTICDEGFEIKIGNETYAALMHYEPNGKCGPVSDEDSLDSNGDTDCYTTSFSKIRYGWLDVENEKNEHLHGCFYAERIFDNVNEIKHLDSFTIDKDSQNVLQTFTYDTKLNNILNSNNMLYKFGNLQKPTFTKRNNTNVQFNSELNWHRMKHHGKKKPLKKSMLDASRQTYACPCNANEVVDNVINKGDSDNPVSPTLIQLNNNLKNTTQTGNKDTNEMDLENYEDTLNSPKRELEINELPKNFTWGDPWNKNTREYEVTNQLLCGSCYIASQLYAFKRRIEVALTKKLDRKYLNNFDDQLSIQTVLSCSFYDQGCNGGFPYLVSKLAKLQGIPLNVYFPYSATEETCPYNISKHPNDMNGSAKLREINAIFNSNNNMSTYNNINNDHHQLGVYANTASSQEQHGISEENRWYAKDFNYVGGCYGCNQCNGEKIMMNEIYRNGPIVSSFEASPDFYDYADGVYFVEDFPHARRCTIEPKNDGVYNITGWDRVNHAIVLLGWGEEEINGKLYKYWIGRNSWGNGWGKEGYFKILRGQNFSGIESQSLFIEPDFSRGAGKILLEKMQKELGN

The assay concerns the target DPAP1 (Plasmodium falciparum, UniProt Q8IIJ9). The assay is described as follows: primary screen, percent inhibition; read by cleavage of a fluorogenic dipeptide substrate; higher = more effect of the substance. The arrangement: species or system P. falciparum D10 trophozoite lysates; single well.
As for `Cc1cc2cc(CNC(=S)NC(C)(C)C)ccc2[nH]1`, the “% Inhibition @ 10 uM” value is listed as -3.7%.

As to `COc1cc(C(=O)Nc2c(C)cc(Br)cc2C)cc(OC)c1OC`, the “% Inhibition @ 10 uM” value is given as -0.171%. Regarding `COc1ccc(Cl)cc1NC(=O)CSc1ncccn1`, the “% Inhibition @ 10 uM” value was -4.75%.

In the case of `CCCC(=O)Nc1ccc(C(=O)Nc2cccc(OC)c2)cc1`, the “% Inhibition @ 10 uM” value is on record as -0.545%. In the case of `COc1cc(OC)c(OC)cc1CN1CCN(Cc2ccncc2)CC1` it was -4.26%. The value for `CCn1c2ccccc2c2nnc(SCC(=O)Nc3nccs3)nc21` was 15.8%. In the case of `Cc1sc(-n2cccc2)c(C(C)NC(=O)NC23CC4CC(CC(C4)C2)C3)c1C` (centres unmarked) it was -3.34%; in that of `CCOc1ccc2nc(N3CCCC(C(=O)NCCCN4CCN(C)CC4)C3)sc2c1` (centres unmarked), -1.58%. In the case of `Cc1cc2oc(C(=O)NCC(c3ccco3)N3CCCC3)c(C)c2cc1C` (centres unmarked), the “% Inhibition @ 10 uM” value is 0.19%.

As for `COc1ccc(-c2nc3s/c(=C\c4cc(C)c(O)c(C)c4)c(=O)n3n2)cc1`, the “% Inhibition @ 10 uM” value amounted to 2.25%. In the case of `COc1ccc(CN(C)CCN(C)C)c(C)c1C` it was -4.95%; in that of `CC1=C(C)CC(C(=O)Nc2ccc(Cl)cc2Cl)C(C(=O)O)C1` (centres unmarked), -1.28%; in that of `CC(NS(=O)(=O)c1cccc(Cl)c1)C(=O)Nc1ccc(Br)cc1F` (centres unmarked), -5.3%.

For `O=C(COc1ccc(Cl)cc1Cl)N1CCCc2ccccc21`, the “% Inhibition @ 10 uM” value is -0.636%. In the case of `CN(Cc1ccccc1)C(=O)c1ccccc1Br` it was -1.62%; in that of `Oc1c2c(nn1-c1ccccc1)CCC2`, 2.65%; in that of `C/N=C1/S/C(=C/c2ccc(O)c(OC)c2)C(=O)N1C1CCCCC1`, 19.8%. In the case of `CC1CCCC(C)N1CCCNC(=O)Cn1ncc2c3ccccc3n(Cc3ccccc3)c2c1=O` (centres unmarked) it was -3.35%; in that of `CCCc1ccc(OCc2ccc(C(=O)N3N=C(C(F)F)CC3(O)C(F)F)o2)cc1` (centres unmarked), -3.18%; in that of `CC(=O)Nc1ccccc1-c1nnc(S)nc1O`, -0.0217%. In the case of `COc1ccc(C(=O)N[C@@H](CSCc2ccccc2)C(=O)NCC#N)cc1` it was 1.35%; in that of `COc1ccc(NC(=O)COc2ccc(S(=O)(=O)N3CCCC3)cc2)cc1Cl`, -1.98%. With `O=C(Cn1cc(S(=O)(=O)Cc2ccccc2)c2ccccc21)NCc1ccccc1`, the “% Inhibition @ 10 uM” value is given as -1.6%. In the case of `CCOCCCNC(=O)Cn1ncn2nc(-c3cccs3)cc2c1=O` it was 0.413%; in that of `Oc1c(C(Nc2ccc(Br)cn2)c2ccccc2)ccc2cccnc12` (centres unmarked), -1.45%; in that of `O=C(c1ccc(COc2ccc3c(c2)CCC3)o1)N1N=C(C(F)F)CC1(O)C(F)F` (centres unmarked), 2.08%. In the case of `CCOc1ccc(C2SCC(=O)Nc3c2c(C)nn3C2CCOC(C)(C)C2)cc1` (centres unmarked), the “% Inhibition @ 10 uM” value was -2.21%. The value for `CCCc1cc(C(=O)Nc2c(C)nn(Cc3ccc(F)cc3)c2C)no1` was -3.77%; that for `COc1ccc(CN2CCN(Cc3ccc(OC)cc3OC)CC2)cc1` was -4.6%. The value for `CC1=CC(C)(C)N(Cc2ccc([N+](=O)[O-])cc2)c2ccc(C)cc21` was 1.24%; that for `COc1ccccc1NC(=O)C(C)Oc1ccc(C)cc1` (centres unmarked) was 3.67%. In the case of `O=C(NCc1ccc2c(c1)OCO2)c1ccccc1C(=O)NCc1ccc2c(c1)OCO2` it was -10.1%. As to `CC1(C)CC(=O)C(C2C3=C(CC(C)(C)CC3=O)Oc3ccccc32)C(=O)C1` (centres unmarked), the “% Inhibition @ 10 uM” value is given as -0.357%. In the case of `CCN(CC)S(=O)(=O)c1ccc(C(=O)N2CCN(C3=NS(=O)(=O)c4ccccc43)CC2)cc1` it was -7.9%; in that of `O=C(CSc1nc2ccsc2c(=O)n1Cc1ccc2c(c1)OCO2)NCc1ccc(Cl)cc1`, -1.12%; in that of `COc1ccc(C(=O)Nc2nc(-c3nnn(-c4cccc(C)c4C)c3C)ns2)cc1`, -3.22%. Take `CCN(CC)CCN1C(=O)C(O)=C(C(=O)c2cccs2)C1c1ccccc1F` (centres unmarked): the “% Inhibition @ 10 uM” value is recorded as -1.44%. In the case of `CC(C)c1ccc2c(c1)c1c3n2CCNC3CCC1` (centres unmarked) it was -4.84%. In the case of `CC[C@H](NC(=O)[C@H](Cc1c[nH]c2ccccc12)NC(=O)c1ccc(-c2ccccc2Cl)cc1)C(=O)c1nc2ccccc2o1`, the “% Inhibition @ 10 uM” value was -3.48%. Regarding `CC(C)(C)c1ccc(-c2cc3ncc(-c4ccccc4)c(N)n3n2)cc1`, the “% Inhibition @ 10 uM” value is recorded as 1.52%. Regarding `Cn1cnc2c1c(=O)n(C/C=C/c1ccccc1)c(=O)n2C`, the “% Inhibition @ 10 uM” value is given as 0.431%. Take `COC(=O)C1=C(C)N(CCc2ccccc2)C(=O)/C1=C\c1ccc(C)cc1`: the “% Inhibition @ 10 uM” value is listed as -7.18%. The value for `O=C1S/C(=C/c2ccc(F)cc2)C(=O)N1CN1CCCCC1` was 0.823%. For the molecule `CN(Cc1ccccc1)c1oc(COc2ccc(F)cc2)nc1C#N`, the “% Inhibition @ 10 uM” value turned out to be 4.08%. The value for `Cc1cc(Cl)ccc1NC(=O)C(=O)NC(C)C` was 6.17%; that for `CCC(C)N1C(=O)S/C(=C/c2ccc(N3CCOCC3)cc2C)C1=O` (centres unmarked) was 2.84%; that for `CC1(C)CC(=O)/C(=C/c2ccccc2)C(C)(C)N1` was 2.95%. In the case of `CCOC(=O)N1CCN(Cc2cccc(Cl)c2)CC1` it was 4.8%. The value for `Cc1ccc(S(=O)(=O)N(C)c2ccc(C(=O)N3CCC(C(N)=O)CC3)cc2)cc1` was 2.48%. As for `COc1ccc(-c2cc(CCCC(=O)NCCc3cc(OC)ccc3OC)no2)cc1`, the “% Inhibition @ 10 uM” value is -3.1%. As for `O=C1NC(=S)S/C1=C\c1ccc(-c2ccccc2)cc1`, the “% Inhibition @ 10 uM” value is listed as -0.582%. The value for `O=c1[nH]c(=O)n(Cc2ccccc2)c2nc[nH]c12` was 1.91%. The value for `COc1ccc(C2(NCCc3ccc(Cl)cc3)C(=O)c3ccccc3C2=O)cc1` was -4.76%. Take `CCOc1ccc2oc(=O)cc(CN(CCCN3CCOCC3)Cc3ccco3)c2c1`: the “% Inhibition @ 10 uM” value came out at 0.00706%. In the case of `Clc1cccc(-c2nnc3sc(-c4cc5ccccc5o4)nn23)c1` it was -0.45%. In the case of `COc1ccc(-c2cc(OC(=O)c3ccc(Cl)cc3)c3c(C)oc(C)c3c(=O)c2)cc1OC` it was -2.92%; in that of `COc1ccccc1CNC(=O)C1CCN(S(=O)(=O)c2cccs2)CC1`, -5.52%. The value for `COc1ccc(Br)cc1CNCc1sc(C(=O)O)cc1C` was 6.65%; that for `COc1ccc(CCC(=O)Nc2cc(Cl)cc(Cl)c2)cc1` was 14.8%; that for `CS(=O)(=O)N1CCCC(C(=O)NCCCN2CCc3ccccc3C2)C1` (centres unmarked) was 5.35%. Turning to `CCOc1ccc2nc(NC(=O)c3cc4ccccc4o3)sc2c1`, the “% Inhibition @ 10 uM” value is given as -1.79%.

Regarding `CCOc1ccccc1C(=O)Nc1c(C(=O)N2CCN(c3ncccn3)CC2)oc2ccccc12`, the “% Inhibition @ 10 uM” value came out at 4.76%.

For the molecule `CC(Nc1ccc(F)c(Cl)c1)C(=O)O` (centres unmarked), the “% Inhibition @ 10 uM” value was 4.26% and -0.351%.

As to `CC1=C(C(=O)Nc2ccc(C)cc2)C(c2ccccc2Br)NC(=O)N1` (centres unmarked), the “% Inhibition @ 10 uM” value was -3.01%. The value for `COc1cccc(NC(=O)CCCOc2ccc(C(C)(C)C)cc2)c1` was -1.26%. With `CCSc1nc2sc3c(c2c(=O)n1Cc1ccccc1)CCC3`, the “% Inhibition @ 10 uM” value is on record as -9.52%. As to `CC(=O)Nc1c(N2CCCC2)cnn(-c2ccccc2)c1=O`, the “% Inhibition @ 10 uM” value is given as 2.41%. The value for `COc1nc(-c2ccccc2)cc(-c2ccc(F)cc2)c1C#N` was 1.52%. In the case of `Cc1nc(NC(=O)C23CC4CC(CC(C4)C2)C3)sc1C(=O)N(C)C` it was -1.2%. In the case of `Cc1sc(NC(=O)c2ccnn2C)c(C#N)c1-c1ccccc1` it was -3.77%; in that of `Cc1ccc2nc(O)c3cc(C(=O)N(C)Cc4ccccc4)sc3c2c1`, -3.44%. On to `Clc1ccc(Cc2nc(-c3ccncc3)no2)cc1`, for which the “% Inhibition @ 10 uM” value is listed as -1.62%. In the case of `O=C(c1ccccc1)c1cc2c(cc1Cl)OCCO2` it was -4.97%; in that of `COc1cc(=O)n(C)c2c(OCC3OC(C)(C)OC3(C)C)cccc12` (centres unmarked), -2.7%. In the case of `CC1(C)CC2=Nc3ncnn3C(c3ccc(Br)cc3)C2=C(O)C1` (centres unmarked) it was 1.73%; in that of `O=C(CN1C(=O)c2ccccc2C1=O)c1ccccc1`, 2.26%; in that of `Cc1cccc(NC(=O)CSc2nc(N)cc(N)n2)c1C`, -5.66%. For `CCN(CC)CC#CC(C)(O)c1ccccc1` (centres unmarked), the “% Inhibition @ 10 uM” value is -4.31%. The value for `O=C(Cn1c(=O)c2cccn2c2cccnc21)NCc1ccc2c(c1)OCO2` was 7.39%. In the case of `Cc1cc(OCC(=O)Nc2ccc(CN3CCOCC3)cc2)ccc1Cl` it was -6.59%. In the case of `COC(=O)c1cc(S(=O)(=O)N2CCC(C)CC2)c[nH]1` it was -0.825%; in that of `C=C(C)CSc1nc(N)c2c3c(sc2n1)CCC3`, 4.37%; in that of `CC(C)CCNC(=O)C1c2ccccc2Oc2ccccc21`, -1.36%. In the case of `Cc1cc(C)c(NC(=O)NC(=O)c2cccc(OC(F)(F)C(F)F)c2)c(C)n1`, the “% Inhibition @ 10 uM” value is -1.04%. With `Cc1cc(OCCCN2CCCCC2)ccc1Cl`, the “% Inhibition @ 10 uM” value is -5.62%. In the case of `Cc1c(Cl)cccc1/N=C1/SC(CC(=O)Nc2ccc(C(=O)O)cc2)C(=O)N1C` (centres unmarked) it was 6.03%; in that of `CCOCCCNC(=O)C(C)Sc1nc2nc(C)cc(C)n2n1` (centres unmarked), 2.79%.

For `COc1cccc(OC)c1C(=O)Nc1ccccn1`, the “% Inhibition @ 10 uM” value is on record as -3.04%. In the case of `CC(C)(C)c1ccc(C(=O)NCC2CCCO2)cc1` (centres unmarked) it was 4.38%; in that of `COc1cccc(NC(=O)CN(C2CCCCC2)S(=O)(=O)c2ccc(F)cc2)c1`, -3.68%. The value for `CCOC(=O)c1snc(-c2ccc(Cl)cc2)c1N` was 5.54%. In the case of `COc1cccc(Cn2c(Oc3cccc(OC)c3)nc3c2c(=O)n(C)c(=O)n3C)c1` it was 5.17%; in that of `[O-][n+]1ccccc1C(O)CN1CCN(c2cccc(Cl)c2)CC1` (centres unmarked), -5.84%; in that of `O=C(NCc1cccnc1)c1cccc(Br)c1`, 3.74%. Turning to `CC(=O)c1c(C)oc2ccc(O)c(CN3CCOCC3)c12`, the “% Inhibition @ 10 uM” value is reported as 1.23%.

As for `CCN(CC)c1ccc(NC(=O)c2cccc(C)c2)c(C)c1`, the “% Inhibition @ 10 uM” value was -9.31%. In the case of `CCN(CC)C(=O)C(C)N(C#N)c1nc(NC(C)C)nc(NC(C)C)n1` (centres unmarked) it was 4.55%; in that of `C(=C\c1ccccc1)/CN1CCN(C2CCN(CCc3ccccc3)CC2)CC1`, 97.7%; in that of `O=C(O)COCC(=O)Nc1cccnc1`, 0.776%. The value for `O=S(=O)(N1CCCCC1)N1CCCN(S(=O)(=O)N2CCCCC2)CC1` was 4.94%; that for `O=C(O)c1ccc(-n2cc(CNCCc3ccc(Cl)cc3)c3ccccc32)s1` was 4.79%.
